Test system: Salmonella typhimurium catheter biofilm
Experiment: In vivo catheter assay: Salmonella typhimurium colonized catheters inserted into back flanks of mice
Details: combination: 100 ug ALZ3H3 into lumen + 1 mg/ml ampicillin in drinking water

B1: ALZ.3H3: human monoclonal antibody with pan-amyloid binding activity; heavy chain SEQ ID NO:2, light chain SEQ ID NO:35 (antibody)
VH: MEFGLSWVFLVALLRGVQCQVQLVESGGGVVQPGRSLRLSCAASGFSFSTYGMHWVRQAPGKGLEWVAVISYDGSRKYYADTGKGRFTISRDNSKNTLYLEMNGLRAEDTAVYHCAKDLRRELGFGNRDYHYYGMDAWGQGTTVTVSSASTK
light: LTQPRSVSGSPGQSVTMSCTGTNSDIGGYNYVSWYQQHPGKAPKLMIYDVYKRPSGVPDRFSGSKSGNTASLTISGLQAEDEADYYCCSYAGTNNLIFGGGTKLTVLGQPKAAPSVTLFPPSSEELQANKATLVCLISDFYPGAVTVAWKADSSPVKAGVETTTPSKQSNNKYAASSYLSLTPEQWKSHRSYSCQV
modifications: Chemically Synthesized, ALZ.3H3 Heavy Chain; Chemically Synthesized, ALZ.3H3 Light Chain
Biofilm growth on the catheter: markedly reduced the biofilm growth on the catheter

Reference: patent US12202887B2, “Eradication of bacterial biofilm using anti-amyloid monoclonal antibodies” (priority 2018, dated 2025)
